# From PubChem BioAssay AID1476 (National Center for Advancing Translational Sciences (NCATS), 2009)
# The campaign covered roughly 200,000 compounds. About 4,500 (2.2%) were called active. The shares of active, inactive and inconclusive entries below differ from those in the screen. Calls follow the shape of the dose curve; as a rule, active = well fitted inhibition curve with a large enough effect; inconclusive = small, poorly fitted or top-dose-only effect, or effect the other way; inactive = flat fitted curve, though single readings scatter. Where the call is inconclusive, the potency comes from a doubtful curve fit.
# Target: Cruzipain (Trypanosoma cruzi) (UniProt P25779)
# Sequence of UniProt P25779 (P25779 whole entry, looked up): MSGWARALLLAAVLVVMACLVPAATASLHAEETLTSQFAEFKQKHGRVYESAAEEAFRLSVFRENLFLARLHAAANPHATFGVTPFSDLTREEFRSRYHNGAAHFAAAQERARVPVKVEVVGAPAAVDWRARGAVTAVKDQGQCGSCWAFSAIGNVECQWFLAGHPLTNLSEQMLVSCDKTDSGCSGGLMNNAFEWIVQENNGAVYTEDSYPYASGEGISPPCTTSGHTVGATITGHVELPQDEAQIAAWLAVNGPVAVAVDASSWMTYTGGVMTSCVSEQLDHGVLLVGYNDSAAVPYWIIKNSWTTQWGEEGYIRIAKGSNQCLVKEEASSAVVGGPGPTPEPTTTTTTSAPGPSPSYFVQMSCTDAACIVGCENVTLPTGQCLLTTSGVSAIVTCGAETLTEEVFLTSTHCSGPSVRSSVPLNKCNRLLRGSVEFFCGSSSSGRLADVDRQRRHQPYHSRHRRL
# Assay: qHTS Assay for Promiscuous and Specific Inhibitors of Cruzain (without detergent); also: nearly all actives have a fitted effect of over 40% in size;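 as to max response, negative = inhibition: plate controls were enzyme without inhibitor for no effect and buffer without enzyme for full effect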
# Conditions: purified cruzain, Z-FR-AMC fluorescence, no detergent
# Summary of the method: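 Detergent-free condition (0.00005% Triton X-100) in acetate buffer pH 5.5 with DTT. 1.5 nM enzyme and compound were pre-mixed 15 min, then 2 uM Z-FR-AMC substrate added; reaction progress from fluorescence change between first and third reads (60 s).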
# Potency is read from the fitted curve at half-maximal effect; tags tell the direction and shape of the fitted curve.
Compound,Potency,"max response, negative = inhibition"
CC1=C(C(=O)OC2CCCCC2)C(c2cccs2)n2c(nc3ccccc32)N1 (stereo unspecified),"inconclusive: 39.8 µM [inhibitor, single point]",
COc1cccc(Cn2c(=O)c(C)nc3cnc(N(C)C)nc32)c1,"inconclusive: 39.8 µM [activator, single point]",
COc1cc(NS(=O)(=O)c2ccc(NC(=O)COc3ccccc3C)cc2)nc(OC)n1,"inconclusive: 39.8 µM [activator, single point]",
O=c1c2ccccc2[nH]c(=S)n1CCc1ccccc1,"inconclusive: 31.6 µM [inhibitor, single point]",
O=C(Nc1ccc(N2CCN(C(=O)c3ccc(Cl)cc3)CC2)cc1)c1ccc(Br)o1,"inconclusive: 31.6 µM [inhibitor, single point]",
CCc1ccc(-n2nc(C)c3c(C(=O)NCCc4ccc(OC)c(OC)c4)cc(C)nc32)cc1,"inconclusive: 39.8 µM [activator, single point]",
COc1ccc(CN2COc3ccc4c(-c5ccc(OC)cc5)cc(=O)oc4c3C2)cc1,"inconclusive: 31.6 µM [inhibitor, single point]",
COc1ccc(CNc2nc(-c3cccc(NS(C)(=O)=O)c3)nc3ccccc23)c(OC)c1,,inactive: -6.46%
COC(=O)/C=c1/s/c(=C(\C#N)C(=O)NCc2ccco2)n(-c2ccc(C)cc2)c1=O,"inconclusive: 25.1 µM [activator, single point]",
CCOC(=O)c1c(NC(=O)N/N=C/c2ccccc2OCC)sc(C(C)=O)c1C,"inconclusive: 3.16 µM [inhibitor, single point]",
c1ccc2c(c1)ncn2CCCOc1ccc2c(c1)CCC2,"inconclusive: 31.6 µM [inhibitor, single point]",
CCOC(=O)c1cc(OC(=O)c2ccc(Cl)cc2)n(-c2ccccc2)n1,,inactive: 9.61%
O=C(Nc1c(-c2ccccc2)nc2ccccn12)c1ccc(Br)cc1,,inactive: 19%
CS(=O)(=O)N(CC(=O)NC1CCCCCC1)Cc1ccc(Cl)cc1,"inconclusive: 39.8 µM [activator, single point]",
Cc1noc(C)c1S(=O)(=O)N(CC(=O)NCc1ccccc1Cl)c1ccc(C(C)C)cc1,,inactive: -3.7%
Cc1ccc(OCC(=O)Nc2ccc(O)c(-c3nc4ccccc4o3)c2)cc1,active: 3.98 µM,
O=C(Cn1c(CC(=O)N2CCOCC2)nc2ccccc21)Nc1ccc2c(c1)OC(F)(F)O2,"inconclusive: 31.6 µM [activator, single point]",
O=C(Nc1nnc(COc2ccc(Cl)cc2)s1)c1cccs1,active: 25.1 µM,
CCOc1ccc(C(=O)Nc2ccc(S(=O)(=O)N3CCCCC3c3cccnc3)cc2)cc1 (stereo unspecified),,inactive: 2.48%
CCc1cccc(C)c1NC(=O)Cn1c(=O)cc(C(F)(F)F)c2c(C)nn(C)c21,,inactive: -4.46%
COC1=C(C(=O)c2ccccc2)C(=O)C2(CC=C(C)C)C[C@H](C(=O)OCC(F)(F)F)C(C)(C)[C@@]1(CC=C(C)C)C2=O (tested in a mixture with another compound),,inactive: 1.97%

Compound,Potency,"max response, negative = inhibition"
COc1ccc(C(=O)OCC(=O)c2ccccc2)cc1S(=O)(=O)N1CCOCC1,"inconclusive: 39.8 µM [activator, single point]",
Cc1c(C(=O)Nc2ccc(F)c(C(F)(F)F)c2)sc2nc(-c3ccccc3)cn12,,inactive: -10.2%
COc1ccc([N+](=O)[O-])cc1NC(=O)C(C)OC(=O)C1c2ccccc2Oc2ccccc21 (stereo unspecified),"inconclusive: 25.1 µM [inhibitor, single point]",
Nc1ncnc(Sc2ccc(Cl)cc2)c1[N+](=O)[O-],"inconclusive: 39.8 µM [inhibitor, single point]",
CNC(=S)N(CCc1c(C)[nH]c2ccc(C)cc12)Cc1ccc(OC)c(OC)c1,"inconclusive: 31.6 µM [activator, single point]",
CCCCOc1ccc(NC(=O)Cn2c(=O)ccc3c(C)cc(C)nc32)cc1,"inconclusive: 39.8 µM [activator, single point]",
CC1CCN(S(=O)(=O)c2ccc3c(c2)N(CC(=O)NCCCN2CCCCC2)C(=O)CS3)CC1,,inactive: 7.22%
COc1ccc([N+](=O)[O-])cc1NC(=O)CC(c1ccccc1)c1ccccc1,active: 25.1 µM,
COc1ccc(OC)c(N2C(=O)CC(Cc3cc(C)cc(C)c3)C2=O)c1 (stereo unspecified),"inconclusive: 39.8 µM [activator, single point]",
O=C(Nc1nc2ccc(F)cc2s1)c1nc(S(=O)(=O)Cc2ccccc2F)ncc1Cl,"inconclusive: 5.01 µM [inhibitor, single point]",
C[C@]1(c2ccccc2)OC(C(=O)O)=CC1=O,,inactive: 0.19%
COc1cccc(S(=O)(=O)NCc2ccc(C(=O)Nc3ccc(Cl)c(Cl)c3)cc2)c1,"inconclusive: 39.8 µM [inhibitor, single point]",
Cc1cccc(CC(=O)Nc2ccc3nc(N4CCC(C)CC4)cc(C)c3c2)c1,"inconclusive: 39.8 µM [inhibitor, single point]",
C=CCn1c(SCC(=O)Nc2cc3oc4ccccc4c3cc2OC)nnc1-c1cnccn1,"inconclusive: 7.94 µM [activator, full curve]",
CC(=O)N1CCN(CC(=O)Nc2ccccc2Sc2ccc(Cl)cc2)CC1,"inconclusive: 39.8 µM [activator, single point]",
CCOc1ccc(/C=C2\N=C(c3cccs3)OC2=O)cc1OC,"inconclusive: 39.8 µM [inhibitor, single point]",
O=C(NCc1ccc2c(c1)OCO2)c1cc(-c2ccccc2)on1,"inconclusive: 31.6 µM [inhibitor, single point]",
Cc1ccc(NC(=O)Cn2cnc3onc(-c4ccc(F)cc4)c3c2=O)c(Cl)c1,,inactive: -6%
O=C(CCCCCn1c(=O)c2sccc2n(CC(=O)Nc2cc(C(F)(F)F)ccc2Cl)c1=O)NCc1ccccc1Cl,active: 15.8 µM,
COc1ccccc1-c1cc2nc(C)c(CCC(=O)NCCc3cccc(C)c3)c(C)n2n1,"inconclusive: 31.6 µM [activator, partial curve]",
